Data: patent EP1751175B1, “INTERLEUKIN-1 RECEPTOR ANTAGONISTS, COMPOSITIONS, AND METHODS OF TREATMENT” (VALORISATION-RECHERCHE, Société en Commandite, priority 2004, dated 2005)
Read-outs that look alike come from different tables or passages of the source. For some of these results: Not every detail of the peptide structures is certain; ends, links or a residue may be inferred. Marks after values point to notes of the source that are not given here. Some entries repeat one wording, which the source may state once for all of them. For some of these results: For at least one compound, name, drawing or mass did not settle the structure. Where a SMILES comes first, the peptide text is derived from it.

Tests used:
[1] = test system: piglet brain microvascular endothelial cells; assay: IL-1-induced PGE2 synthesis in brain microvascular endothelial cells (RIA); format: cell-based, porcine; conditions: for IC50: read-out: IC50
human chondrocytes = assay: IL-1-induced PGE2 synthesis in human chondrocytes (RIA); format: cell-based; conditions: peptides 10^-6M
piglet pial vessels = test system: piglet pial vessels; design: species or system Yorkshire piglets; conditions: IL-1β 75 ng/ml
Description: Ex vivo vasomotor response on brain vessels was performed as described (Li et al., 1996; Hou et al., 2000; Hou et al., 2001; Hou et al., 2003). Brains were removed from Yorkshire piglets. Slices of cortex exposing the pial vessels were pinned to a wax base of a 20 ml bath containing Krebs buffer (pH 7.4) equilibrated with 95% O2, 5% CO2 and maintained at 37°C. Microvessels were visualized and recorded using a video camera mounted on a dissecting microscope. Vascular diameter was measured using a digital image analyzer. Vascular diameter was recorded before and after topical application of pre-constricting agent, U46619 (10^-7 M). After stabilization of preparation, the ligand (IL-1β, 75 ng/ml) was added until stable vasodilation was detected. Peptides were subsequently added at different concentrations from 10^-10 to 10^-5 M. Reversal of vasodilatation was visualized and measured as previously described (Hou, et al. 2000; Hou et al. 2001; Hou et al. 2003); triplicate measurements were conducted on 2 animals.

[2] = test system: IL-1β induced hypotension; assay: IL-1β-induced systemic hypotension in rats; format: in vivo, Sprague-Dawley rats; conditions: compared with API-101.10, 101.101 and peptidomimetics
[3] = test system: WI-38 (human lung fibroblasts); assay: IL-1β induced WI-38 proliferation (tritiated thymidine uptake); format: cell-based; conditions: WI-38, IL-1β 10 ng/ml (Figure 8)
WI-38 human fibroblasts = WI-38 human fibroblasts (Homo sapiens, UniProt P14778+Q9NPH3); assay: IL-1-induced PGE2 synthesis in WI-38 human fibroblasts; format: cell-based; conditions: for better potency: human WI-38 cells, comparator not stated
Sequence of WI-38 human fibroblasts (P01584 117-269 partner, one chain of several): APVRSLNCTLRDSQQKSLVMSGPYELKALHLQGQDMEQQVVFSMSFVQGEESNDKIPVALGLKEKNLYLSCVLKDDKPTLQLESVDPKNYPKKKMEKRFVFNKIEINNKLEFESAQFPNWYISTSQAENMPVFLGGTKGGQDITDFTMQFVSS

Brain tissues = assay: Ex vivo IL-1β-induced cGMP production in brain tissues; conditions: 10^-6M
[4] = test system: rat model of Inflammatory Bowel Disease; assay: TNBS rat model of inflammatory bowel disease, 48 hours (Example 6): MPO, macroscopic and histologic evaluation; format: in vivo, rats
[5] = KD (method not described); format: binding
[6] = test system: IL-1 ß-induced proliferation and PGE2 synthesis; assay: Structure vs activity summary of Table 4 (proliferation and PGE2 synthesis, not separated); format: cell-based; conditions: Table 4, derivatives of TTI-101.107
TF-1 cells = molecular target: T1, TF-1 cells (Homo sapiens, UniProt P14778+Q9NPH3); assay: IL-1ß-induced TF-1 proliferation; format: cell-based; conditions: Table 5
T1 sequence (P14778 18-569): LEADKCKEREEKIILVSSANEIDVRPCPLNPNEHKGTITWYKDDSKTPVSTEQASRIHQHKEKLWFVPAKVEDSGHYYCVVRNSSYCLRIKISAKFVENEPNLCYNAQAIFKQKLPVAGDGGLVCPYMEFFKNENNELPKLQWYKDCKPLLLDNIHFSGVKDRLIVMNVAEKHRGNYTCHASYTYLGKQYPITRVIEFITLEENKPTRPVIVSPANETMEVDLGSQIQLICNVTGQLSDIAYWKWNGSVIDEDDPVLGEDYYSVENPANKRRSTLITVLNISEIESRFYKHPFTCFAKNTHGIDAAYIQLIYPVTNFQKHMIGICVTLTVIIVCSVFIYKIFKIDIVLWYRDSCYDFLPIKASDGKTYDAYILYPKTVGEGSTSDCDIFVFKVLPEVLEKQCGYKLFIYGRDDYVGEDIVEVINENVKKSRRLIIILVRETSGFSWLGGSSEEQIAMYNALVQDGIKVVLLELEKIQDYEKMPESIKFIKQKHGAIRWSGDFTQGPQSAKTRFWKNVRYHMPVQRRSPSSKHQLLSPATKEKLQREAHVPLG
T1 sequence (Q9NPH3 21-570): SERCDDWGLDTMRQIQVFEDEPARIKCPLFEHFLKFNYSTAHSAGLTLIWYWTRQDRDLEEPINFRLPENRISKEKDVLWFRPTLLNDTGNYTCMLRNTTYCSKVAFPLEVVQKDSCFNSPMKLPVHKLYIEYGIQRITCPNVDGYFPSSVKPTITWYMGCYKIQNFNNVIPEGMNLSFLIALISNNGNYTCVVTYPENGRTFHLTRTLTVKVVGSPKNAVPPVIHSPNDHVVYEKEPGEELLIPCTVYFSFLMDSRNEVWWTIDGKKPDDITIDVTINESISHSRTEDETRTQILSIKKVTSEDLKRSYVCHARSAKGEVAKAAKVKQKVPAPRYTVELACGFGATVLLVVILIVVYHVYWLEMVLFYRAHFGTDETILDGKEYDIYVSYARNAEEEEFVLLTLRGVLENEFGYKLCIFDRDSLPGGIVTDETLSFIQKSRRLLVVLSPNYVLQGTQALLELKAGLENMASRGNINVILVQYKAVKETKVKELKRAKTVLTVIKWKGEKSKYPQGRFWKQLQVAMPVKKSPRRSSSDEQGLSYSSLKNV

A549 carcinoma cells = assay: IL-1β proliferation assay on A549 carcinoma cells (tritiated thymidine incorporation); format: cell-based; conditions: IL-1β 10 ng/ml 24 h, 3H-thymidine
[7] = continuous infusion (ip), dose 0.5 mg/kg/d
[8] = intermittent injection ip, dose 0.2-BID mg/kg/d

## CC(C)C[C@@H](NC(=O)[C@@H](C)NC(=O)[C@H](NC(=O)[C@H](NC(=O)[C@@H](Cc1ccc(O)cc1)NC(=O)[C@@H](CCCNC(=N)N)NC(=O)[C@H]1CCCN1C(=O)[C@@H](C)N)[C@H](C)O)C(C)C)C(=O)N[C@H](C)C(=O)O [API-101.6]
[1]; endothelial cells, peptides 10^-6M
  efficacy / activity on IL-1-induced PGE2 synthesis compared to parent peptide API-101, in words: lost almost all activity
Human chondrocytes
  efficacy / activity on IL-1-induced PGE2 synthesis compared to parent peptide API-101, in words: lost almost all activity
Piglet pial vessels
  effect on IL-1β-induced vasodilation, in words: reversed the vasodilation

## CC(C)C[C@@H](NC(=O)[C@@H](CCC(=O)O)NC(=O)[C@H](NC(=O)[C@H](NC(=O)[C@@H](Cc1ccc(O)cc1)NC(=O)[C@@H](CCCNC(=N)N)NC(=O)[C@H]1CCCN1)[C@H](C)O)C(C)C)C(=O)N[C@H](C)C(=O)O [API-101.9]
Piglet pial vessels
  effect on IL-1β-induced vasodilation, in words: better IC50 than API-101
[2]
  prevention of IL-1β hypotension, in words: less effective

## CC(C)C[C@@H](NC(=O)[C@@H](CCC(=O)O)NC(=O)[C@H](NC(=O)[C@H](NC(=O)[C@H](N)Cc1ccc(O)cc1)[C@H](C)O)C(C)C)C(=O)N[C@H](C)C(=O)O [API-101.11, YTVELA]
Piglet pial vessels
  effect on IL-1β-induced vasodilation, in words: better IC50 than API-101
[3]
  IL-1β-induced proliferation abolished: 100%

## CC(C)C[C@@H](NC(=O)[C@@H](CCC(N)=O)NC(=O)[C@H](NC(=O)[C@H](NC(=O)[C@@H](Cc1ccc(O)cc1)NC(=O)[C@H](N)CCCNC(=N)N)[C@H](C)O)C(C)C)C(=O)N[C@H](C)C(=O)O [API-101.103, RYTVQLA]
WI-38 human fibroblasts
  better potency: more than 1000 fold
Brain tissues
  IL-1β-induced cGMP production inhibited: more than 90%

## CC(C)C[C@@H](NC(=O)[C@@H](CCC(=O)O)NC(=O)[C@H](NC(=O)[C@H](NC(=O)[C@@H](Cc1ccc(O)cc1)NC(=O)[C@H](N)CCCNC(=N)N)C(C)C)C(C)C)C(=O)N[C@H](C)C(=O)O [API-101.106, RYVVELA]
Brain tissues
  IL-1β-induced cGMP production inhibited: more than 90%

## CC(C)C[C@@H](NC(=O)[C@@H](CCC(=O)O)NC(=O)[C@H]1CCCN1C(=O)[C@H](NC(=O)[C@@H](Cc1ccc(O)cc1)NC(=O)[C@H](N)CCCNC(=N)N)[C@H](C)O)C(=O)N[C@H](C)C(=O)O [API-101.107, RYTPELA]
[1]; b237 endothelial cells (Figure 19), b252 Figure 15, cell type not stated
  IC50: 0.0012 nM
WI-38 human fibroblasts
  better potency: more than 1000 fold
[4]; [7]
  MPO (% of TNBS+Saline): 37 % of TNBS+Saline
  histologic evaluation (median score): 1.5
[4]; [8]
  MPO (% of TNBS+Saline): 112 % of TNBS+Saline
  histologic evaluation (median score): 2.5
  macroscopic evaluation (median score): 1.37^†
[4]; intraperitoneal osmotic pumps (continuous infusion)
  efficacy (MPO activity, macroscopic and histologic score) compared with Kineret, in words: superior or equivalent in efficacy to Kineret
[4]; twice a day administration
  efficacy of intermittent administration compared with dexamethasone, Remicade and 5-ASA, in words: dose-dependent efficacy

## CC(C)C[C@@H](NC(=O)[C@@H](CCC(=O)O)NC(=O)[C@H]1CCCN1C(=O)[C@H](NC(=O)[C@@H](Cc1ccc(O)cc1)NC(=O)[C@H](N)CCCNC(=N)N)C(C)(C)O)C(=O)N[C@H](C)C(N)=O [API-101.109, RY(HyVal)PELA] (HELM PEPTIDE1{[dR].[dY].[CC(C)(O)[C@@H](N[*:1])C(=O)[*:2]].[dP].[dE].[dL].[dA].[am]}$$$$V2.0)
[1]; endothelial cells (Figure 19)
  potency in inhibiting PGE2 (IC50), in words: improved potency
[5]
  KD, in words: to high

## CC(C)C[C@@H](NC(=O)[C@@H](CCC(=O)O)NC(=O)[C@H]1CCCN1C(=O)[C@H](NC(=O)[C@@H](Cc1ccc(O)cc1)NC(=O)[C@H](N)CCCCN)[C@H](C)O)C(=O)N[C@H](C)C(=O)O [API-101.114, KYTPELA]
[6]
  activity of the peptide, in words: maintains its activity

## CC(C)C[C@@H](NC(=O)[C@@H](CCC(=O)O)NC(=O)[C@H]1CCCN1C(=O)[C@H](NC(=O)[C@@H](Cc1ccc(O)cc1)NC(=O)[C@H](N)CCCN)[C@H](C)O)C(=O)N[C@H](C)C(=O)O [API-101.115, XYTPELA (X=Ornithine)] (HELM PEPTIDE1{[NCCC[C@@H](N)C(=O)[*:2]].[dY].[dT].[dP].[dE].[dL].[dA]}$$$$V2.0)
[6]
  activity of the peptide, in words: maintains its activity

## CC(C)C[C@@H](NC(=O)[C@@H](CCC(=O)O)NC(=O)[C@H]1CCCN1C(=O)[C@H](NC(=O)[C@@H](Cc1c[nH]c2ccccc12)NC(=O)[C@H](N)CCCNC(=N)N)[C@H](C)O)C(N)=O [API-101.128, RWTPEL]
TF-1 cells
  IC50: 3000 µM

## CC(C)C[C@@H](NC(=O)[C@@H](CCC(=O)O)NC(=O)[C@H](NC(=O)[C@H](NC(=O)[C@@H](Cc1ccc(O)cc1)NC(=O)[C@@H](CCCNC(=N)N)NC(=O)[C@H]1CCCN1C(=O)[C@@H](C)N)[C@H](C)O)C(C)C)C(=O)N[C@H](C)C(=O)O [API-101]
A549 carcinoma cells
  IC50: 1 µM
[1]; IL-1β 10ng/ml, dose response (Figure 3)
  IC50: 1000 nM
[1]; endothelial cells (Figure 18)
  IC50: 220 nM
[1]; peptide 10^-6M, IL-1 10ng/ml
  PGE2 synthesis induced by IL-1 decreased by: more than 50%
WI-38 human fibroblasts; WI-38 (Figure 18)
  IC50: 0.79 µM
Piglet pial vessels
  effect on IL-1β-induced vasodilation, in words: reversed the vasodilation
[3]
  IL-1β-induced proliferation abolished: 65%
